Reference: the supplement of paper PMC10681739
± gives the standard deviation of the averaged measurements. Whole data set: some 4,100 sequences, median “arbitrary fluorescence units” near 780, cut for the highest 2% near 22,000. Some of the results follow.

target: T1, ETS1 (UniProt P14921); assay: ETS1 binding intensity (PBM fluorescence), ETS1 alone (arbitrary fluorescence units); higher = stronger binding; details: ETS1 concentration 1 nM; RUNX1 concentration 0 nM
T1 sequence: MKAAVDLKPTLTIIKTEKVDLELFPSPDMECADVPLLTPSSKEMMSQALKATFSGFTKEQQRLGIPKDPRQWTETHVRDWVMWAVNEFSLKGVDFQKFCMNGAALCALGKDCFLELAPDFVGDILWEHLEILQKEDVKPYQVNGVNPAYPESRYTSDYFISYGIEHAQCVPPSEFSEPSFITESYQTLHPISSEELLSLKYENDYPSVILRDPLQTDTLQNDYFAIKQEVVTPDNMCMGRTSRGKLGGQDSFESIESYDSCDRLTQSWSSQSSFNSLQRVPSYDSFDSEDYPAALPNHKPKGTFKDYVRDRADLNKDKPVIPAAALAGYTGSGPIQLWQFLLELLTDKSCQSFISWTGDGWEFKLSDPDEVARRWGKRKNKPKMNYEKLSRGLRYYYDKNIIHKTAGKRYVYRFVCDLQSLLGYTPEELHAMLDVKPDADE
Method: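 gcPBM on 36-bp genomic-derived probes (partner site mutated) containing one ETS1 site and no RUNX1 site. Recombinant human ETS1 (1 nM) was incubated alone or with RUNX1 (25 nM) and detected by anti-ETS1 antibody fluorescence. Values are medians over 4 replicate spots (not normalised). The probes sit in constant array flanks that are not printed.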

Sequence | ETS1 binding intensity
GCCTGTTTGTTCCGCCCCCGCGGCAAGCGCTGCTCG | 620
TGGGCTGGGCCGGAACCTCACGGACCTCACCCAACC | 431
CTGATTGGGGTTTTGATTTGCATTTCCCTGATGATT | 538
GAGAGAGGCAGGAAGTGTTGTGCTTATTGTTTGAGC | 3390
CATCAGTTTATGGCTGCCGAGTGCTTCCTGGGAATT | 544
TGGCAAGCACACATCCACATCCACTTCCTGCTGAAC | 4880
CGGAGGCTCACCGTGAAGCCTCCTGGGAAATGTAGT | 340
AAGAACTCACATCAAAGGCTCCCAGGAAGCGCGAGC | 380
TTGCCGTAGCCACTTTATCCACTTCCTTTTTCACGA | 1280
CCGAAGCCTGCGATTTCATGTGGGAGGAAGCGGCCT | 399
TTCTCCACTTCCTTCTTTACCTCACCTACCAGATAA | 6150
GGGCTGGGGCCGAAGCGGGGCTTCCGGCCCCCCAGG | 4720
ATGTAAACAAGGATGTGAGTTCTCCGGCTACACTCT | 625
AAAACGCGGAAATACGGAGGCGGCGGCCCTCGGGCA | 1250
CTAACAGCAGGAAGTGCTTGGTGCTTTAGCACCTCA | 3210
CCGAGGTATCTCAGCAGCCGCTGGGCATCCGGAGGA | 463
GCCCTGAGGGCAGGAGAAGAGTCCGGAAATGGAAAT | 2200
CACGTCCGTCTCACCTGACCCAGAGGCACCCCGAGC | 3730
AGGGACCCGGATGTCTGGTCGGCGGCTGCTCCTCTA | 2460
TAGCCGTACGGAAATGTTTGTTGTTCTCTGCATCTA | 528
TTGGGGTAGGGAAATCCACTTACCCCTTCCTCATGT | 377
AAGTCCAACAATGCACTCCTCCACAGGAAGTTCCCA | 782
CCATTGGCAAGCGCGCTGCGCCAACTTCCGGGTTGT | 2960
CAACGCTTGCCGAGCGCCAGCAGGAAGTGGTGGGCG | 1120
CAGTGCTTAGGCAGAGGAGGACATACTTCCTGTAAT | 2200

Sequence | ETS1 binding intensity
CATCGAAGAGCTTCGGCACCACTTCCGAGTGGAGCA | 754
CAGGAGAACCTACAATGCACCGAAACTTCCGCCCCC | 1180
AAAGCATTTCCTGCCTTGACTTAACTACAAGACAGG | 25700
CATGGAGTGTCTGGTGAACTTCCCCATCCCTCCTGG | 365
ACCGTGGTGTTCCGCCCAATGCCTTCTGGGAGTTGT | 448
GACCCATTTCCTGGCTCAGGAGCCCTCAGCCCTGGG | 7400
TGGAAGAGCCCCACGACATGTGCTTCCTGCGTGCTG | 596
GAATGTCTGTGCTCACATACTCAGCTTCCTGTTTAT | 1370
GAGGCCGTACGCGCACCGAGCTTCCGTCCTGCGCTC | 772
ATTTTTCCTTCCTTCTCCCGTCCCCTCAGAGTGCAA | 1550
AGCTGCAGCGGATGGCGGACGACCCCAACGCACAGT | 450
GTGGCTTCCTGCCATTGACAATCGCGGGATGGCTTT | 11100
CGCCGGTCCCATATCCTTTCTGCGAGGTGAGCAGCA | 2440
GTGGAAAGGAAATGTGTCATCTGTAGTTTGGTTTTA | 909
GCCCACCCCCGAATTCTCGCCACTTCCTCCCCGGGA | 1400
GCCAACTACAACATGAGGAATACATTTCCTCTTCAG | 647
GTTCAGCAGCTACAACAAGAGAGGATGTGTAGTGTT | 436
GACTTTTACGGAAATAGCAGTCCAAAAGCGCGTCTA | 1850
GCACGGCGGAATTTCAAATGGGGTTTTGTAGTTTCT | 348
CCCGGAGGACGTCCGGCCTCTGTGAGCCGCCACCTT | 4500
CAAGAGAAAGGAAGTGGAAGCTCTTGTAGTCTGGAA | 2190
CCAGGATGTAGTTTGGCCACTATTGAGTGCTTTGTT | 428
GCAGAAACAGGAAGAGACAGGGCTGACAGCAGCAGG | 2370
CTCTAGAGGCTTCCTGCCCAACTACCAAGAAAAAGC | 5010
CGATGCTTCCGGCCTCCTATTGGGTGCTTTCTTGGC | 21800

Sequence | ETS1 binding intensity
GGCGGATGGGGAGAAGAGAGTGGCTGTTGTCTCTGG | 461
TGTTGCCACTGTTAGACTAGAGAGCATCCTGTTGTT | 851
CCCCCGCCGCTGGCGCCCATCAGTGCCACTTCCGGA | 2400
CCCGGCGGCTACTTTCGGTCACTTTCGCCGGAACCT | 444
TGGGGCCTTGTTATCACAGCACTTCCTGTTTGCTTT | 7990
CTGAAACAGGAAACAGACAAAGTCACAAGGTTCGCA | 5430
AACCCCAAAACGGAAACACCGGAGCCCCAAGCTGAG | 2320 ± 160
GCCCCCAGCCCCGGAGCCTGGCTTTCTTCCTGCTCG | 388
GCCTCGCGGCCTCTAGGTGCGGGCGGATAACAAAAC | 344
ACCTGAGCAGGAAGTAGCTGAGGTCGAGGTGCAGCA | 4370
GTGGGTTTAGGATATGGGTGTAGTTTCTAATTGTCT | 564
CTCCTGGGCTTGTAGTTAGAACATCCTGCAGCAAAG | 1130
CCGCCCTTCCGGCTGGCCCCGCTCAGTCACCCTCAG | 5860
GGTGAGCATCCGATAGCCTGGAGCAGCACCTACACC | 841
GCGGACTGCACTCCCGGTCTCTGCCAGGAAGAAGTA | 440
CTAGGCCACCGGAAGTCTCCGCTCTGGATTTGCAAA | 14300
CAGATTCAAGGAAGTGGTGGTGCTTTGGTGTCGTTG | 852
CAAACATGTTGTCTCCGAGCAGGAAAATGCTAAAAT | 399
GCACTGCTGGTCGGACATAGTGACGCACTTCCGCCC | 1880
GGGGGAGTTTTCGGAAGCGCTAACAGCGTTGGGGCC | 566
GCCCGGCTTAGCCGCGTCGCGGAAGTCCGCTCTCTG | 397
GACAATGTAGAGGTTGTCAGGATGTTGCTAAGTCAT | 460
TGTCAAAGTTTGGGGTGAGTGGCTTCCTGGAGACCC | 429
GCCCCGGAAGCTCCTTAAGGAGGACCGTGTGAGTTT | 1880
GGGGGGGTGAGGTCCTGGTCGGAAGGAGGTGGAGAG | 1170

Sequence | ETS1 binding intensity
CAGGGCCAACTCACTGCGCCAGGATGTTGTCAGGTC | 540
CGAACCCGGGTTCCGCCCGCGCCGTAGACGCTCCTA | 673
TATTGTGTACTTCCCCTTCATGTTGTAGTTGGCTTT | 1150
ACAACTTCCTGTGGGATTTTTGGTGTCTACGGCTCA | 37400
TTCTGCTACATCCTGCCCACTCCCTGTGACTTCCAC | 9350
AGGCGCGATATTAGGCGGACGAGCGGAAGTGGCTGG | 1840
GGCGGTGACCGGAAGAGCTGAGTCACCGAAGGCGAC | 7610
GGTTCGCGGCTTCCGGGACATTTGTACCCCAGGGGG | 5500
ACTGAGGGCGTTGCTAGCATGAAGGCGGAAGCGCGC | 438
GCTTTTCCGCTCCCAGAGTGCCCCGCTCACAGTTCA | 8800
ATCCCACTATAGGAAGCTTCTCTGTGATTTTGAGCC | 439
GGGGCAGTGCTCACAGGAGGATCTTCCTGGAGTCAT | 352
CCGTACTTCCGCTTTACTCAGATTTTGGACCTCGGG | 30200
CGGCCTCGCGGCATGGGCAGTATCCGCCGCCATCCA | 464
CCCCCGGACGGTTACAGAGGACACTTAAGTGGCTTG | 386
GTTTAACAGGAAACCCTGCAGAGCACAGGTTCTGTC | 2350
TTCCGGCTGGTCCGTGGGGTTTCGGGTTGTCTTGAT | 385
GTGGCCACTTGAACTGCAGATGCTTCCTGGGCTGGT | 446
CAACCTGCTATAAGGAAGTTAAACCCCAGCTCACCG | 609
GTCCCCTCGGTGTCACAGCAATATCCGTTCTTTGAT | 1190
GGACAAGGGCCTGCAGCACAGGAAAAGATTTACCAA | 386
GGGCCCACATCCGGCGCGCGCAACAGCAGCCTACTG | 25800
GGTAAATCACAGCTGCCTGAAGCAGGAAGATGAGGG | 419
AGTCTGTGATAATTTGTTATGTAGCGATAGGAAGTG | 349
GTGGCGAAAGTGCGGATGCGAAACCCCTGGCTCGGC | 499

Sequence | ETS1 binding intensity
AAAGGGAAGTTCGCGGGAGGTCAAATCCACCGGGGC | 460
CAGTCCGGAATCCCACGCTCCCTAGCCCGAGGTGAG | 375
TAAAATTTCGGGAGGGGACTTGGTCCTTCCTGTTGC | 735
ACTCCCCGTGATAACCTTGTTCATCCGCTGAAGCCC | 479
AACAGTCACATCCGGGGCCGAGAGGAACCCCGAACG | 16200
AAACTGGCCAGAGAGCAGTCTCCGGAAGCTGCCTCT | 738
CACCGGCGCAGTTCGCGGGAGCGCTCTTCCTGGGGC | 565
CGCCTCATTTCCTGTGCAACTGCTGTAAAAATAGGA | 22400
GTAGGTGAGGTACGCCGCACCAGGAAATACTGAAAC | 463
ACGGTCAATGGCCGTAAACCGGGAGGAAGGCGGGAG | 328
CTGCAGTGGGCTCCGCCCAGTTCGAACTTCCTGTAG | 1130
GCATCCCGCGCGCCGAAGACCCACTTCCGGAGACCT | 8210
AAAGGGCTCCAGGGATGTTCTGAGCTTTACAGGCTG | 327
AGCCAGAACTGCGCCCGGGCCGCGGAAGGAAGACTC | 312
AACATGTCGCTATTTTGGGCAATTTCCTGAGGAGGC | 765
AAATTGACGTTTCTGTTAGTGAAGAGGAGGAAGTCA | 377
GCATGCCCGACTGCACCCGCGGACCGGACCTACTTT | 313.1 ± 1.3
AGCAGCTGCCAGAGGAAGTCTGCGGACGGAACAGGC | 593
ACTTCACTTCCCAACCTCCCCTGTCGTTAGGTGTGG | 622
AGCCCACACGGACCCCAGCTCCAGGAAGCCGAGCAA | 384
CAGTTTACGGCACTGTTGTCATTTCCGGGGTAAGAT | 7030
GAGGGGAGGTGCTTTCACAGCTTCCTCCCTACCCAC | 641
CGAGCAGGAAGTGGCAAGATTTGATAGGCGGCCAGG | 6050
TGGATAGTGGGACACCTCAACAGGATGTTAGTGAGG | 858
CCAGAAAGCACTTTCAGGTATGTGGAGAAGGAAGTC | 398
